In article PMC5571198 one finds binding data, which are given here for 1 molecule.

These are yes or no findings as the source states them, for the method shown. In cells and extracts the contact can be indirect. Some entries that bind do so weakly or less than the wild type. Where a sequence is shown, tags or fusion partners need not be part of it.

In this assay the target is T1, FLAG-tagged human (h) USP26 (ubiquitin-specific protease 26) (human) (UniProt Q9BXU7).
T1 sequence: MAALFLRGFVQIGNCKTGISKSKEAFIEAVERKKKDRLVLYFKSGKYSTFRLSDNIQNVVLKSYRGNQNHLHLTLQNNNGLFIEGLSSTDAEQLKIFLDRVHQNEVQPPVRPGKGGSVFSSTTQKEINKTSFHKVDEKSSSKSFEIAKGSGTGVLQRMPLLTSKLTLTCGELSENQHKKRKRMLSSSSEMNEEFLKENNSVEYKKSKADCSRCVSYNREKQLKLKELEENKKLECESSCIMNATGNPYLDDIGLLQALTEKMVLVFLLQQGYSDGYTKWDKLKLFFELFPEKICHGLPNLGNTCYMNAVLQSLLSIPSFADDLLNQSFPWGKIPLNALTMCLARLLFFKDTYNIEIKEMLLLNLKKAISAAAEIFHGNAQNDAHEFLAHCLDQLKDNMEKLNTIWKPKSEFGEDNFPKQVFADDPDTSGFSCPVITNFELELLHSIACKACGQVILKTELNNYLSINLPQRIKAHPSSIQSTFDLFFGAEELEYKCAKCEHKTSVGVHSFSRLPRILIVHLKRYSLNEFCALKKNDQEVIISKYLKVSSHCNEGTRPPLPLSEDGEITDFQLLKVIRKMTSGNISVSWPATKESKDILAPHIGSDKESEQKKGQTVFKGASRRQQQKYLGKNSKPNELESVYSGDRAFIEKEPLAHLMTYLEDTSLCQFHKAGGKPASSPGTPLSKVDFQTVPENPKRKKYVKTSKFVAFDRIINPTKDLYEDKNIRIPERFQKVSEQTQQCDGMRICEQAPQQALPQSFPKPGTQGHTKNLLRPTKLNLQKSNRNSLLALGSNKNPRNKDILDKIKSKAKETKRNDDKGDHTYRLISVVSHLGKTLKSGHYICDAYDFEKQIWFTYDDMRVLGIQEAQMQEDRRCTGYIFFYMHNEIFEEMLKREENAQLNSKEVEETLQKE
Put plainly: co-IP; RING1A knockout 293T cells transfected with FLAG-USP26; IP with anti-FLAG antibody, western blot with specific antibodies for the endogenous proteins. Background: In western blotting, separated proteins are transferred to a membrane and probed.

B1: CBX6 (endogenous in 293T cells) (protein, UniProt O95503 1-412)
chain: MELSAVGERVFAAESIIKRRIRKGRIEYLVKWKGWAIKYSTWEPEENILDSRLIAAFEQKERERELYGPKKRGPKPKTFLLKARAQAEALRISDVHFSVKPSASASSPKLHSSAAVHRLKKDIRRCHRMSRRPLPRPDPQGGSPGLRPPISPFSETVRIINRKVKPREPKRNRIILNLKVIDKGAGGGGAGQGAGALARPKVPSRNRVIGKSKKFSESVLRTQIRHMKFGAFALYKPPPAPLVAPSPGKAEASAPGPGLLLAAPAAPYDARSSGSSGCPSPTPQSSDPDDTPPKLLPETVSPSAPSWREPEVLDLSLPPESAATSKRAPPEVTAAAGPAPPTAPEPAGASSEPEAGDWRPEMSPCSNVVVTDVTSNLLTVTIKEFCNPEDFEKVAAGVAGAAGGGGSIGASK
With B1, the binding entry is given as “binds”.
